Experimental data as given in PubChem BioAssay AID624414 (National Center for Advancing Translational Sciences (NCATS), 2012).
Hit rate of the full screen: of about 410,000 compounds, about 480 (0.12%) were called active. The inconclusive results got no clear call from the source; some entries with a clear call stand among them for comparison. No stated cut-off is given here; in the data, active means activation above about 50%; inconclusive means mostly about 30% to 49%; inactive means weaker than that.
Further: 0% is about no effect.

What follows are compounds tested against Mucolipin-1 (Homo sapiens) (UniProt Q9GZU1) (assay: qHTS for Agonists of the Human Mucolipin Transient Receptor Potential 1 (TRPML1)). Settings: TRPML1-expressing cells, Ca2+ dye fluorescence, FDSS; hits give high values.
UniProt Q9GZU1, sequence (Q9GZU1 whole entry, looked up): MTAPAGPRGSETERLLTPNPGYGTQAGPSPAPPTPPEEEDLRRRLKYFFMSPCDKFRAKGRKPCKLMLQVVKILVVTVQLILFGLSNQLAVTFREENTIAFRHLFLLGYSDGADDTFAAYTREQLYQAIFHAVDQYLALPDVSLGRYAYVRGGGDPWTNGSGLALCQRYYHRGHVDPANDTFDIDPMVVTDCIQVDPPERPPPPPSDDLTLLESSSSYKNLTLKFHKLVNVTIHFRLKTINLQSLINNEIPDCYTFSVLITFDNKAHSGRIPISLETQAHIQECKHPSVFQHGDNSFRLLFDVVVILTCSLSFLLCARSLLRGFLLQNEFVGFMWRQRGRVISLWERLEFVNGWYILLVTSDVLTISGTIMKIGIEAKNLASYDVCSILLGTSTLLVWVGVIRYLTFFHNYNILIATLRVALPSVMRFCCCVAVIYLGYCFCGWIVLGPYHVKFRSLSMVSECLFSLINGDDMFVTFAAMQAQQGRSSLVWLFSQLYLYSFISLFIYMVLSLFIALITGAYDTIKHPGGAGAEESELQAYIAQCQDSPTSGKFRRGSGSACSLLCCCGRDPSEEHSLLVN
In short: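 Tetracycline-induced TRPML1-DL cells are seeded and incubated overnight before loading with a no-wash Ca2+ dye and quencher. Agonist activity is taken from the 110 s fluorescence read following compound pin-transfer on an FDSS, before EC80 54-4 challenge.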
In the case of `Cc1[nH]c2ccccc2c1/C=C(\C#N)C(=O)NCC1CCCO1` (stereo unspecified), the activation is reported as inactive: 1.51%.
For `CCn1c(-c2ccc(F)cc2)n[nH]c1=S`, the activation was inconclusive: 38.6%.
With `CC1CCCCC1NC(=O)COc1ccc(-n2cnnn2)cc1` (stereo unspecified) the activation was inactive: -0.517%.
For `O=C(Cc1ccc(Br)cc1)Nc1ncc([N+](=O)[O-])s1`, the activation was inactive: 0.102%.
In the case of `CC(C)CCN1C(=O)c2cccc3c(N)ccc(c23)C1=O`, the activation is reported as active: 88.6%.
For `C=C1CCN([C@@H](CC(C)C)C(=O)NCCC(C)C)S(=O)(=O)c2ccccc21`, the activation was inconclusive: 33.4%.
In the case of `Cc1ccc(-c2nc3ncccn3c2Nc2ccccc2C)o1`, the activation is reported as inactive: 0.24%.
`CCOc1ccc(/C=C2/SC(=S)N(C(C(=O)O)c3ccccc3)C2=O)cc1OCC` (stereo unspecified) was tested, and the activation was inactive: 0.405%.
In the case of `CN(C)c1ccc(/C=C/c2ccc3ccccc3[n+]2[O-])cc1`, the activation is reported as active: 107%.
`O=C(Nc1ccc(NC(=O)N2CCN(c3ccccc3O)CC2)cc1)N1CCN(c2ccccc2O)CC1` was tested, and the activation was inactive: 0.454%.
With `c1ccc2cc(Sc3ncnc4c3oc3ccccc34)ccc2c1` the activation was inconclusive: 32%.
For `CC(C)C[C@H]1CN=C(Nc2ccccc2)N1CCc1ccc(F)cc1`, the activation was inconclusive: 42.8%.
`C=C1CCN(C(CC(C)C)C(=O)NCCCc2ccccc2)S(=O)(=O)c2ccccc21` (stereo unspecified) was tested, and the activation was inconclusive: 31.1%.
With `O=C(CNC(=O)c1ccncc1)N/N=C/c1ccc(Br)cc1` the activation was inactive: 0.589%.
For `O=S(=O)(NCc1ccccc1)c1ccc2[nH]c3c(c2c1)CCCCC3`, the activation was inactive: -0.491%.
For `COc1cc(N2CCCC2)c(OC)cc1/C=C1/NC(=S)NC1=O`, the activation was inconclusive: 47.1%.
With `Cc1onc(-c2ccccc2)c1C(=O)NNC(=S)NC(=O)c1ccc(Br)cc1` the activation was inconclusive: 46.1%.
In the case of `Cc1ccc(C)c(N/C(N)=N/c2nc(C)cc(C)n2)c1`, the activation is reported as inconclusive: 48.2%.
`CCOC(=O)C1=C(C)N(c2ccc(Cl)cc2)C(=O)NC1c1cccc([N+](=O)[O-])c1` (stereo unspecified) was tested, and the activation was inactive: 0.56%.
With `O=c1cc(/C=C/c2ccc([N+](=O)[O-])cc2)c2ccccc2[nH]1` the activation was inactive: -0.443%.
`CC1CCN(C2=C(NS(=O)(=O)c3ccccc3)C(=O)c3ccccc3C2=O)CC1` was tested, and the activation was inconclusive: 48.8%.
For `CC(C)(C)n1nnnc1C(c1ccc(F)cc1)N(Cc1ccc(F)cc1)Cc1ccco1` (stereo unspecified), the activation was inconclusive: 39.9%.
In the case of `CCNC(=O)COc1ccc(Br)cc1Cl`, the activation is reported as inactive: 0.945%.
In the case of `Cc1ccc2nc(/C(C#N)=C/c3ccc(-c4cccc(Cl)c4)o3)[nH]c2c1`, the activation is reported as inconclusive: 45.2%.
In the case of `Cc1ccc(C(=O)NNC(=S)NC(=O)c2ccco2)cc1`, the activation is reported as inconclusive: 42.9%.
In the case of `COc1nc(-c2ccc(C)cc2)ccc1-c1noc(-c2cccnc2)n1`, the activation is reported as inconclusive: 31.6%.
For `CCN(CC)c1ccc(C=C2SC(=S)NC2=O)cc1`, the activation was inconclusive: 41.8%.
`O=C(Cc1ccccc1F)Nc1nc(-c2cccs2)cs1` was tested, and the activation was inactive: 1.01%.
For `O=C(c1cc(COc2ccc(F)cc2Cl)on1)N1CCCCCC1`, the activation was inactive: 0.0385%.
`CN(C(=O)Cn1c(=O)n(CCC(=O)NCc2ccc3c(c2)OCO3)c(=O)c2sccc21)c1ccccc1` was tested, and the activation was inactive: 0%.
For `Cc1ccc(-n2ncc(C(=O)N3CCN(C4CCCCC4)CC3)c2C2CCN(C(=O)OC(C)(C)C)CC2)cc1C`, the activation was active: 69.2%.
With `CC(C)(C)n1nnnc1C(c1ccccc1)N1CCN(c2ncccc2C(F)(F)F)CC1` (stereo unspecified) the activation was inconclusive: 47.3%.
With `COc1ccc(-n2c(=O)c3c(c4cc(OC)ccc4n3C)n(CC(=O)N3CCCC3)c2=O)cc1` the activation was inactive: -0.528%.
For `COc1cc(/C=C2/SC(=S)N(CC3CCCO3)C2=O)ccc1O` (stereo unspecified), the activation was inconclusive: 37.3%.
In the case of `Cc1ccc(O)c(C(=O)c2cc(C#N)c(=O)n(-c3nccs3)c2)c1`, the activation is reported as active: 62.8%.
`CN(C)c1ccc(/C=C/c2nc3ccccc3c(=O)n2-c2ccc(C(=O)O)cc2)cc1` was tested, and the activation was active: 64.2%.
In the case of `COc1cc(/C=C/C(=O)/C=C(O)/C=C/c2ccc(O)c(OC)c2)ccc1O`, the activation is reported as inconclusive: 49.6%.
In the case of `O=c1oc2ccccc2c(NC2CCCCC2)c1NS(=O)(=O)c1ccc(F)c(Cl)c1`, the activation is reported as inconclusive: 37%.
In the case of `Cc1cccc(NC(=S)NC(=O)Cc2ccccc2)c1C`, the activation is reported as inconclusive: 46.4%.
For `O=C(Nc1ccc(Br)cc1Cl)c1ccc2c(=O)n3c(nc2c1)CCC3`, the activation was inactive: 5.9%.
In the case of `CCN1/C(=C/c2ccc3cccc(C)c3[n+]2CC)Sc2ccccc21`, the activation is reported as active: 57.9%.
For `Cc1ccc(S(=O)(=O)N2CCc3ccccc3C2CN2C(=O)c3ccccc3C2=O)cc1` (stereo unspecified), the activation was active: 87.5%.
With `N#C/C(=C/c1ccc(N2CCOCC2)o1)C(=O)NC1CCCCC1` the activation was inconclusive: 32.8%.
In the case of `O=C(NC12CC3CC(CC(C3)C1)C2)c1cc2nc(-c3ccco3)cc(C(F)(F)F)n2n1`, the activation is reported as inconclusive: 43.4%.
`Cc1nc(CC(=O)Nc2ccc(C(N)=O)cc2)cs1` was tested, and the activation was inactive: 1.28%.
In the case of `CN(C)S(=O)(=O)c1ccc2c(c1)/C(=C/c1cc3c([nH]1)CCCC3)C(=O)N2`, the activation is reported as inconclusive: 43.8%.
For `O=C(O)c1cccc(-c2ccc(/C=N/Nc3ccc([N+](=O)[O-])cc3)o2)c1`, the activation was inconclusive: 39%.
`O=C(Nc1ccc2c(c1)OCCO2)c1cc2ccccc2o1` was tested, and the activation was inactive: -0.742%.
With `COc1ccc(/C=C\C(=O)O[C@@H]2C(O)C(O[C@@H]3OC(C)[C@H](O[C@@H]4OCC(O[C@H]5O[C@H](CO)[C@@H](O)C(O)C5O)C(O)C4O)C(O)C3O)[C@H](OC(=O)[C@]34CCC(C)(C)C[C@@H]3C3=CCC5[C@@]6(C)CC(O)C(O[C@@H]7OC(CO)C(O)[C@H](O)[C@H]7O)[C@@](C)(C(=O)O)C6CC[C@@]5(C)[C@]3(CO)CC4)O[C@H]2C)cc1` (stereo partly specified) the activation was inconclusive: 37.2%.
`CCCCCCCCCC[n+]1ccc(/C=C/c2c[nH]c3ccccc23)c2ccccc21` was tested, and the activation was inconclusive: 40.8%.
`CC(OC(=O)/C(C#N)=C/c1ccc(N(C)C)cc1)C(=O)N(C)Cc1ccccc1` (stereo unspecified) was tested, and the activation was inconclusive: 46.6%.
With `CCOc1ccc(S(=O)(=O)Nc2ccccc2C(=O)Nc2ccccc2N2CCOCC2)cc1` the activation was inactive: 1.21%.
With `Brc1ccc2c(c1)C(c1ccc(N3CCOCC3)cc1)=NNC(c1cccs1)=N2` the activation was inactive: -0.094%.
`COc1cc(/C=C2/C(=N)N3C(SC)=NSC3=NC2=O)ccc1OC(=O)c1ccco1` was tested, and the activation was inactive: -0.826%.
In the case of `CCc1ccccc1OCCSc1nnc(-c2cc(OC)c(OC)c(OC)c2)o1`, the activation is reported as inactive: 2.46%.
With `O=S(=O)(Nc1cc(C(F)(F)F)ccc1N1CCOCC1)c1ccc2ccccc2c1` the activation was inconclusive: 31.9%.
In the case of `CCN(CC)c1ccc(/C=C2\C(=N)N3N=C(CC(=O)N4CCOCC4)SC3=NC2=O)cc1`, the activation is reported as inconclusive: 45.9%.
With `Cn1c2ccccc2c(=O)c2c(=O)n(C3CCCCC3)c(-c3cccs3)nc21` the activation was inconclusive: 33.3%.
In the case of `CC(C)Cc1ccc(C(C)C(=O)Nc2ccccc2O)cc1` (stereo unspecified), the activation is reported as inconclusive: 37.4%.
`CC(=O)Nc1cccc(C(=O)/C=C/c2ccc(N(C)C)cc2)c1` was tested, and the activation was active: 71.9%.
`CC(=O)c1sc2nc(-c3cccs3)cc(C(F)(F)F)c2c1N` was tested, and the activation was inconclusive: 31.4%.
In the case of `CCCCN(C)CC(O)Cn1cc(/C=C/C(=O)c2ccc(OCC)cc2)c2ccccc21` (stereo unspecified), the activation is reported as inactive: 4.65%.
`Nc1nc(N)c2c(Oc3ccc(F)cc3)cccc2n1` was tested, and the activation was inconclusive: 43.7%.
For `CC(=O)Nc1ccc(NC(=O)COc2ccc(Br)cc2C)cc1`, the activation was inactive: -0.612%.
`COc1cc2cc(CNc3ccccc3)c(=O)n(CC(=O)Nc3cc(C)cc(C)c3)c2cc1OC` was tested, and the activation was inactive: 3.99%.
In the case of `CCN(CC)c1ccc2cc(-c3nc(-c4cc(OC)c(OC)c(OC)c4)no3)c(=O)oc2c1`, the activation is reported as inconclusive: 40.7%.
`S=C(NCC1(c2ccccc2)CCCC1)Nc1ccccc1` was tested, and the activation was inconclusive: 37.9%.
For `COC(=O)c1cc(=O)n(CCc2ccc(OC)c(OC)c2)c(=Nc2ccc(F)c(Cl)c2)s1`, the activation was inactive: -0.864%.
`CCOC(=O)c1oc2ccccc2c1NC(=O)c1ccc(S(=O)(=O)N(C)C)cc1` was tested, and the activation was inconclusive: 34.6%.
`O=C(O)c1cc(S(=O)(=O)N(Cc2ccccc2)c2cccc(C(F)(F)F)c2)ccc1Cl` was tested, and the activation was inconclusive: 42.6%.
`O=S(=O)(Nc1cccc2cccnc12)c1ccc(S(=O)(=O)N2CCCC2)cc1` was tested, and the activation was active: 66%.
In the case of `Cc1ccc(S(=O)(=O)N2CC(C)N(C(=O)N3CCOCC3)C2C)cc1` (stereo unspecified), the activation is reported as inconclusive: 30.8%.
With `O=C(NN1C(=O)/C(=C/c2ccc(O)cc2)SC1=S)c1cccc(O)c1` the activation was inconclusive: 34.6%.
With `COc1ccccc1C(c1nnnn1C(C)(C)C)N1CCN(Cc2ccccc2)CC1` (stereo unspecified) the activation was inconclusive: 45.6%.
For `CCN(C[C@H]1N[C@@](Cc2ccccc2)(C(=O)OC)[C@H]2C(=O)N(Cc3ccccc3)C(=O)[C@@H]12)C(=O)c1ccc(F)cc1`, the activation was inconclusive: 32.7%.
With `CC(C)CN(CC(C)C)c1ccc(/C=C/c2ccnc3ccccc23)cc1` the activation was inconclusive: 36.2%.
In the case of `CCOC(=O)/C(=C\c1ccc(N2CCC(c3ccccc3)=N2)cc1)C(C)=O`, the activation is reported as inconclusive: 49.3%.
With `Cc1c(C(=O)NCc2cccc(Br)c2)oc2ccc3c(c12)C(=O)CC(C)(C)O3` the activation was inconclusive: 48.1%.
In the case of `COc1cc(OC)c(NC(=O)N2CCc3c([nH]c4ccccc34)C2c2ccccc2F)cc1Cl` (stereo unspecified), the activation is reported as inactive: -0.0908%.
With `COc1ccc(S(=O)(=O)c2c(Nc3ccccc3F)sc(C(=O)c3cccc(OC)c3)c2N)cc1` the activation was inconclusive: 32%.
In the case of `CC1CCN(c2ccc3c(c2)S(=O)(=O)c2cccc(C(=O)NCc4ccc(F)cc4)c2C3=O)CC1`, the activation is reported as inconclusive: 31.8%.
